{
  "source": "the supplement of paper PMC8728848",
  "binders": {"B1": {"name": "Gal 8 (Mus musculus), Q9JL15 (protein)", "chain": "MGGSHHHHHHGMASMLSLNNLQNIIYNPIIPYVGTITEQLKPGSLIVIRGHVPKDSERFQVDFQLGNSLKPRADVAFHFNPRFKRSSCIVCNTLTQEKWGWEEITYDMPFRKEKSFEIVFMVLKNKFQVAVNGRHVLLYAHRISPEQIDTVGIYGKVNIHSIGFRFSSASALPHTLGDLQSMETSALGLTQINRENIQKPGKLQLSLPFEARLNASMGPGRTVVIKGEVNTNARSFNVDLVAGKTRDIALHLNPRLNVKAFVRNSFLQDAWGEEERNITCFPFSSGMYFEMIIYCDVREFKVAINGVHSLEYKHRFKDLSSIDTLSVDGDIRLLDVRSW"}},
  "assay_in_all_cases": "glycan array binding signal (z-score within array); higher = stronger binding",
  "settings_in_all_cases": "glycan notation: IUPAC condensed, linker removed",
  "key": {"[1]": {"molecular_target": "Fuc(a1-2)Gal(b1-4)GlcNAc(b1-3)Gal(b1-4)GlcNAc(b1-2)Man(a1-3)[Fuc(a1-2)Gal(b1-4)GlcNAc(b1-3)Gal(b1-4)GlcNAc(b1-2)Man(a1-6)]Man(b1-4)GlcNAc(b1-4)GlcNAc", "method_in_brief": "(§1)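 The Consortium for Functional Glycomics database supplied 3228 glycan arrays, of which those lacking an available protein sequence were dropped. The binding signal, a within-array Z-score, was averaged across arrays of the same protein sequence and across linkers. Negative scores can be read as non-binding.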"}, "[2]": {"molecular_target": "Fuc(a1-2)Gal(b1-4)GlcNAc(b1-3)Gal(b1-4)GlcNAc(b1-3)Gal(b1-4)GlcNAc", "method_in_brief": "as §1"}, "[3]": {"molecular_target": "Fuc(a1-2)Gal(b1-4)GlcNAc(b1-3)GalNAc", "method_in_brief": "as §1"}, "[4]": {"molecular_target": "Fuc(a1-2)Gal(b1-4)GlcNAc(b1-3)[Fuc(a1-2)Gal(b1-4)GlcNAc(b1-6)]GalNAc", "method_in_brief": "as §1"}, "[5]": {"molecular_target": "Fuc(a1-2)Gal(b1-4)GlcNAc(b1-3)[Fuc(a1-3)[Gal(b1-4)]GlcNAc(b1-6)]Gal(b1-4)Glc", "method_in_brief": "as §1"}, "[6]": {"molecular_target": "Fuc(a1-2)Gal(b1-4)GlcNAc(b1-6)GalNAc", "method_in_brief": "as §1"}, "[7]": {"molecular_target": "Fuc(a1-2)Gal(b1-4)GlcNAc6S", "method_in_brief": "as §1"}, "[8]": {"molecular_target": "Fuc(a1-2)Gal(b1-4)[Fuc(a1-3)]GlcNAc", "method_in_brief": "as §1"}, "[9]": {"molecular_target": "Fuc(a1-2)Gal(b1-4)[Fuc(a1-3)]GlcNAc(b1-2)Man(a1-3)[Fuc(a1-2)Gal(b1-4)[Fuc(a1-3)]GlcNAc(b1-2)Man(a1-6)]Man(b1-4)GlcNAc(b1-4)[Fuc(a1-6)]GlcNAc", "method_in_brief": "as §1"}, "[10]": {"molecular_target": "Fuc(a1-2)Gal(b1-4)[Fuc(a1-3)]GlcNAc(b1-2)[Fuc(a1-2)Gal(b1-4)[Fuc(a1-3)]GlcNAc(b1-4)]Man(a1-3)[Fuc(a1-2)Gal(b1-4)[Fuc(a1-3)]GlcNAc(b1-2)Man(a1-6)]Man(b1-4)GlcNAc(b1-4)GlcNAc", "method_in_brief": "as §1"}, "[11]": {"molecular_target": "Fuc(a1-2)Gal(b1-4)[Fuc(a1-3)]GlcNAc(b1-3)Gal(b1-4)[Fuc(a1-3)]GlcNAc", "method_in_brief": "as §1"}, "[12]": {"molecular_target": "Fuc(a1-2)Gal(b1-4)[Fuc(a1-3)]GlcNAc(b1-3)Gal(b1-4)[Fuc(a1-3)]GlcNAc(b1-3)Gal(b1-4)[Fuc(a1-3)]GlcNAc", "method_in_brief": "as §1"}, "[13]": {"molecular_target": "Fuc(a1-2)Gal(b1-4)[Fuc(a1-3)]GlcNAc(b1-3)GalNAc", "method_in_brief": "as §1"}, "[14]": {"molecular_target": "Fuc(a1-2)Gal(b1-4)[Fuc(a1-3)]GlcNAc(b1-3)[Neu5Ac(a2-6)Gal(b1-4)GlcNAc(b1-6)]Gal(b1-4)Glc", "method_in_brief": "as §1"}, "[15]": {"molecular_target": "Fuc(a1-2)Gal3S(b1-4)GlcNAc", "method_in_brief": "as §1"}, "[16]": {"molecular_target": "Fuc(a1-2)Gal6S(b1-3)GlcNAc", "method_in_brief": "as §1"}, "[17]": {"molecular_target": "Fuc(a1-2)Gal6S(b1-3)GlcNAc6S", "method_in_brief": "as §1"}, "Fuc(a1-2)Gal6S(b1-4)Glc": {"molecular_target": "Fuc(a1-2)Gal6S(b1-4)Glc", "method_in_brief": "as §1"}, "[18]": {"molecular_target": "Fuc(a1-2)Gal6S(b1-4)Glc6S", "method_in_brief": "as §1"}, "Fuc(a1-2)[Gal(a1-3)]Gal": {"molecular_target": "Fuc(a1-2)[Gal(a1-3)]Gal", "method_in_brief": "as §1"}, "[19]": {"molecular_target": "Fuc(a1-2)[Gal(a1-3)]Gal(b1-3)GalNAc", "method_in_brief": "as §1"}, "[20]": {"molecular_target": "Fuc(a1-2)[Gal(a1-3)]Gal(b1-3)GalNAc(b1-3)Gal(a1-4)Gal(b1-4)Glc", "method_in_brief": "as §1"}, "[21]": {"molecular_target": "Fuc(a1-2)[Gal(a1-3)]Gal(b1-3)GlcNAc", "method_in_brief": "as §1"}, "[22]": {"molecular_target": "Fuc(a1-2)[Gal(a1-3)]Gal(b1-3)GlcNAc(b1-2)Man(a1-3)[Fuc(a1-2)[Gal(a1-3)]Gal(b1-3)GlcNAc(b1-2)Man(a1-6)]Man(b1-4)GlcNAc(b1-4)GlcNAc", "method_in_brief": "as §1"}, "[23]": {"molecular_target": "Fuc(a1-2)[Gal(a1-3)]Gal(b1-3)GlcNAc(b1-2)Man(a1-3)[Fuc(a1-2)[Gal(a1-3)]Gal(b1-3)GlcNAc(b1-2)Man(a1-6)]Man(b1-4)GlcNAc(b1-4)[Fuc(a1-6)]GlcNAc", "method_in_brief": "as §1"}, "[24]": {"molecular_target": "Fuc(a1-2)[Gal(a1-3)]Gal(b1-3)GlcNAc(b1-3)GalNAc", "method_in_brief": "as §1"}, "[25]": {"molecular_target": "Fuc(a1-2)[Gal(a1-3)]Gal(b1-3)GlcNAc(b1-6)GalNAc", "method_in_brief": "as §1"}, "[26]": {"molecular_target": "Fuc(a1-2)[Gal(a1-3)]Gal(b1-4)Glc", "method_in_brief": "as §1"}, "[27]": {"molecular_target": "Fuc(a1-2)[Gal(a1-3)]Gal(b1-4)GlcNAc", "method_in_brief": "as §1"}, "[28]": {"molecular_target": "Fuc(a1-2)[Gal(a1-3)]Gal(b1-4)GlcNAc(b1-2)Man", "method_in_brief": "as §1"}},
  "note": "This is one part of the list.",
  "data": [
    {"binder": "B1", "values": [
      {"measurement": "glycan array binding signal (z-score)", "setting": "[1]", "value": 1.28},
      {"measurement": "glycan array binding signal (z-score)", "setting": "[2]", "value": 0.901},
      {"measurement": "glycan array binding signal (z-score)", "setting": "[3]", "value": -0.216},
      {"measurement": "glycan array binding signal (z-score)", "setting": "[4]", "value": 0.31},
      {"measurement": "glycan array binding signal (z-score)", "setting": "[5]", "value": 0.097},
      {"measurement": "glycan array binding signal (z-score)", "setting": "[6]", "value": 0.668},
      {"measurement": "glycan array binding signal (z-score)", "setting": "[7]", "value": -0.038},
      {"measurement": "glycan array binding signal (z-score)", "setting": "[8]", "value": -0.54},
      {"measurement": "glycan array binding signal (z-score)", "setting": "[9]", "value": -0.529},
      {"measurement": "glycan array binding signal (z-score)", "setting": "[10]", "value": -0.525},
      {"measurement": "glycan array binding signal (z-score)", "setting": "[11]", "value": -0.515},
      {"measurement": "glycan array binding signal (z-score)", "setting": "[12]", "value": -0.464},
      {"measurement": "glycan array binding signal (z-score)", "setting": "[13]", "value": -0.499},
      {"measurement": "glycan array binding signal (z-score)", "setting": "[14]", "value": -0.445},
      {"measurement": "glycan array binding signal (z-score)", "setting": "[15]", "value": -0.557},
      {"measurement": "glycan array binding signal (z-score)", "setting": "[16]", "value": -0.543},
      {"measurement": "glycan array binding signal (z-score)", "setting": "[17]", "value": -0.517},
      {"measurement": "glycan array binding signal (z-score)", "setting": "Fuc(a1-2)Gal6S(b1-4)Glc", "value": -0.534},
      {"measurement": "glycan array binding signal (z-score)", "setting": "[18]", "value": -0.54},
      {"measurement": "glycan array binding signal (z-score)", "setting": "Fuc(a1-2)[Gal(a1-3)]Gal", "value": -0.527},
      {"measurement": "glycan array binding signal (z-score)", "setting": "[19]", "value": 0.224},
      {"measurement": "glycan array binding signal (z-score)", "setting": "[20]", "value": 0.456},
      {"measurement": "glycan array binding signal (z-score)", "setting": "[21]", "value": 3.88},
      {"measurement": "glycan array binding signal (z-score)", "setting": "[22]", "value": 3.71},
      {"measurement": "glycan array binding signal (z-score)", "setting": "[23]", "value": 1.22},
      {"measurement": "glycan array binding signal (z-score)", "setting": "[24]", "value": 1.49},
      {"measurement": "glycan array binding signal (z-score)", "setting": "[25]", "value": 1.5},
      {"measurement": "glycan array binding signal (z-score)", "setting": "[26]", "value": 2.26},
      {"measurement": "glycan array binding signal (z-score)", "setting": "[27]", "value": 3.76},
      {"measurement": "glycan array binding signal (z-score)", "setting": "[28]", "value": 2.84}
    ]}
  ]
}
